Here are results for 44 sequences from the supplement of paper PMC11417369.

± gives the standard deviation of the averaged measurements. The list shows a part of the results.

For the assay, the system named is PfAP2-LT AP2 domain (GST-tagged). The assay can be described thus: gcPBM binding intensity (ln(normalized median fluorescence intensity)); higher = stronger DNA binding. The essentials:
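After 1 h on an Agilent 4 × 180k array of primer-extended double-stranded 36-bp intergenic genomic probes and negative controls, bound GST-tagged P. falciparum DNA-binding domains were detected with Alexa488 anti-GST antibody and scanned at 488 nm. The domains had been expressed in E. coli, and binding took place in 1× PBS with 1% milk, 0.2 mg/ml BSA, 0.5% salmon testes DNA and 0.03% Triton X-100. Binding intensity is the highest Masliner-normalised natural-log median intensity across replicate spots of either probe orientation.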
On to “AAGAAATAAATACATACACACATATATAAATAAATA [CACACA_site7559]”, for which the “gcPBM binding intensity (ln)” value was determined as 9.21 ± 0.43.
Next, “AAGAAATAATTATTATGTACTTAAAAAAATTAAAAT [XGTACX_site7423]”: 8.54 ± 0.52.
Next, “ATATATATATAATTATATAAAATATATCATATGTTA [XGTACX_negctrl_site47]”: 8.53 ± 0.42.
For “TTTATGTATTTAATATGTACATATAGTTGTTAATAA [XGTACX_site1938]” the value was 8.62 ± 0.33; for “AAAATGTACGCATATACACACACATAAATAGATACG [CACACA_site9124]”, 9.57 ± 0.29.
On to “GCTATATATTAATGTTGTACTTTATGTTCATATTGT [XGTACX_site3619]”, for which the “gcPBM binding intensity (ln)” value turned out to be 9.1 ± 0.48.
For the sequence “TAAATATAGAAACACACACACATTAATACATATATT [CACACA_site3489]”, the “gcPBM binding intensity (ln)” value stood at 9.745 ± 0.078.
As for “AAATTTGAAATGCATGAACACACACCGCTATAAATG [CACACA_site8230]”, the “gcPBM binding intensity (ln)” value amounted to 9.3 ± 0.31.
Turning to “TAATTTTTTATATATTGTACAAATAATATATGATGT [XGTACX_site268]”, the “gcPBM binding intensity (ln)” value turned out to be 8.62 ± 0.42.
For “ATCATTTTTATGTACACACACATATACGTTGAATAT [CACACA_site1865]” the value was 9.47 ± 0.28; for “ACATCATAAAATTTATGTACACATTTTTAATTATAC [XGTACX_site7759]”, 8.74 ± 0.44; for “AAGGTATACACTGCTTTATCAAGTTTAACTCTTTTT [XGTACX_negctrl_site118]”, 8.65 ± 0.46.
For “TATAAAATTTACGTGTGTACATATTTAATAATTTTT [XGTACX_site5001]” the value was 8.84 ± 0.42.
For “AAGATATGAGGGAATACACACATATTTATATTTATA [CACACA_site6846]” the value was 8.96 ± 0.47.
Consider “GTTTCTACTTATATAACAGGACACGTGTGAATAATT [TGCATGCA_negctrl_site430]”, for which the “gcPBM binding intensity (ln)” value worked out at 9.24 ± 0.25.
For “ACAATTGCATCTATCACACATACATACATACATACA [CACACA_site5063]” the value was 9.16 ± 0.24.
For “TTGAAGGTGGCAATGTGTACATAGAATAACCAGTGC [XGTACX_site4738]” the value was 9.15 ± 0.54; for “AAAAAAAAAAAACATTGTACGCACATTTTATATGTC [XGTACX_site6974]”, 8.9 ± 0.35; for “AAAAAAATACATACGTGTACCCACATATATGTATCT [XGTACX_site5319]”, 8.94 ± 0.45.
Take “AATAAAAATAAAAGCACACATAAATATATATATATT [CACACA_site1441]”: the “gcPBM binding intensity (ln)” value was 9.07 ± 0.46.
For “TCATGGCCATTTTCAGTGCATATGTGTATTTAATAT [GTGCAC_site9529]” the value was 8.93 ± 0.34; for GCAAGTCCATGAACGGTGCAGGAATTAACAAAAATA, 8.91 ± 0.61; for “TATAATGATGATGATAGTACGTATTAGTATAAAAAA [XGTACX_site9]”, 8.81 ± 0.52.
Next, “TCATGGGTGTATTTCACACACGGATAATCATTTATA [CACACA_site4663]”: 9.08 ± 0.38; “TCATAAAAATAAAAATGTACACATTAGAAATATTGT [XGTACX_site3671]”: 8.72 ± 0.41; “ATATTTTTTTTTGTTACACACGTTTTTTAAAAAATG [CACACA_site1603]”: 9.02 ± 0.44.
Next, “AGAAATAAAAAAAAAAATATATATATTATATATATA [CACACA_negctrl_site1799]”: 8.55 ± 0.37; “TTATACATATTTATATGTACGTAATATAATATTAAT [XGTACX_site6520]”: 8.63 ± 0.38.
Consider “TTATAATTTTTCTATTGTACATTTAATAATATATAT [XGTACX_site7326]”, for which the “gcPBM binding intensity (ln)” value worked out at 8.56 ± 0.47.
For “ATGAAGAAATAAATGTGTACATATCTTAGTATCATA [XGTACX_site8658]” the value was 8.92 ± 0.42; for “TATTTAATTTATACACGTACATATATAAATAATACA [XGTACX_site1148]”, 8.51 ± 0.35.
Next, “ATTTTTTCTCATAAAAACGTGAACGTTTATTTTACA [CACACA_negctrl_site1041]”: 8.67 ± 0.45; “TCAACAAAATTGAAGGAACACACATACATATATATA [CACACA_site7940]”: 9.01 ± 0.4; “TATAAATATCTGTATGCACACATTTTTTTTGGAAAA [CACACA_site4734]”: 8.85 ± 0.42.
Next, “AGCACATAAATAATTAAACACACATTGTTCTAGACA [CACACA_site8746]”: 8.97 ± 0.38.
For the sequence “ATTATAAAAGAATTTTTTTTTATTTCATTAAAATAT [CACACA_negctrl_site1137]”, the “gcPBM binding intensity (ln)” value was found to be 8.04 ± 0.46.
For “TTACTATAAAATGTCACACATTCTGTTTCCTTACTT [CACACA_site5714]” the value was 8.86 ± 0.54; for “GTGTATATATGTTATACACACAAAAATATTTTGTAT [CACACA_site265]”, 8.97 ± 0.37; for “AAAAATCATATAGGTTGTACGGGTAGTTTATTTTAT [XGTACX_site6936]”, 8.95 ± 0.41.
For “AAAAAAATAATATAAATAATGAAAAGATATAAATAA [GTGCAC_negctrl_site432]” the value was 8.62 ± 0.57; for “TACATATATAAATATGTACACACATATGTATGATCT [CACACA_site9284]”, 9.12 ± 0.23.
For “AATATAAGCAAATACACACACACATATAAATATGTA [CACACA_site7741]” the value was 9.85 ± 0.35; for “ATATGAAGTATCGAATTAAGGGCAACAAATAAATTA [CACACA_negctrl_site1116]”, 8.76 ± 0.57; for “TTATTATATAAAGTTTCACACATTATTTGTTCAAAC [CACACA_site5218]”, 8.74 ± 0.47.
